Reference: patent US20100260668A1 (published 2010)

Legend:
[1] = molecular target: T1, VEGF (UniProt P15692 27-191, limits assumed); assay: direct bind ELISA, antigen on plate; N-terminal VD
T1 construct: Bought antigen coated on the ELISA plate; also called vascular endothelial growth factor
T1 sequence (looked up): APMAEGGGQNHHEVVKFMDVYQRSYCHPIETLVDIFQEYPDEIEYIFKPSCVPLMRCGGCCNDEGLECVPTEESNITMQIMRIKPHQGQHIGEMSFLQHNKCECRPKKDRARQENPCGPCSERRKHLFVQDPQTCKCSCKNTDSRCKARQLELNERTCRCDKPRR

[2] = molecular target: T2, IGF-2 (UniProt P01344 partial chain); assay: Biacore SPR
T2 construct: Bought reagent

[3] = molecular target: T3, DLL ECD His tag (UniProt Q9NR61 partial chain, limits assumed); assay: Biacore SPR
T3 construct: extracellular domain; Bought reagent; also called DLL4; DLL-4; not shown: His tag

[4] = molecular target: T4, Placental GF (UniProt P49763-2 21-149, limits assumed); assay: Biacore SPR
T4 construct: Bought reagent; also called PlGF; PLGF
T4 sequence (looked up): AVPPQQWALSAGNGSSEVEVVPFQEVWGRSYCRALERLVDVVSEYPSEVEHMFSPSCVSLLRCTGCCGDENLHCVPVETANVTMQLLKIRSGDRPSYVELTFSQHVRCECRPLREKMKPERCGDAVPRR

[5] = molecular target: HGF (UniProt P14210 32-728); assay: SPR (Biacore); N-terminal VD
[6] = molecular target: NRP1 (Neuropilin-1 Npn-1-His tag) (UniProt O14786-2 22-644); assay: SPR (Biacore); C-terminal VD
[7] = molecular target: T5, VEGF (UniProt P15692 27-191, limits assumed); assay: direct bind ELISA, N-terminal VD
T5 construct: bought antigen coated on the ELISA plate
T5 sequence (looked up): T1 sequence (looked up)

HGF, sequence (P14210 32-728 limits assumed): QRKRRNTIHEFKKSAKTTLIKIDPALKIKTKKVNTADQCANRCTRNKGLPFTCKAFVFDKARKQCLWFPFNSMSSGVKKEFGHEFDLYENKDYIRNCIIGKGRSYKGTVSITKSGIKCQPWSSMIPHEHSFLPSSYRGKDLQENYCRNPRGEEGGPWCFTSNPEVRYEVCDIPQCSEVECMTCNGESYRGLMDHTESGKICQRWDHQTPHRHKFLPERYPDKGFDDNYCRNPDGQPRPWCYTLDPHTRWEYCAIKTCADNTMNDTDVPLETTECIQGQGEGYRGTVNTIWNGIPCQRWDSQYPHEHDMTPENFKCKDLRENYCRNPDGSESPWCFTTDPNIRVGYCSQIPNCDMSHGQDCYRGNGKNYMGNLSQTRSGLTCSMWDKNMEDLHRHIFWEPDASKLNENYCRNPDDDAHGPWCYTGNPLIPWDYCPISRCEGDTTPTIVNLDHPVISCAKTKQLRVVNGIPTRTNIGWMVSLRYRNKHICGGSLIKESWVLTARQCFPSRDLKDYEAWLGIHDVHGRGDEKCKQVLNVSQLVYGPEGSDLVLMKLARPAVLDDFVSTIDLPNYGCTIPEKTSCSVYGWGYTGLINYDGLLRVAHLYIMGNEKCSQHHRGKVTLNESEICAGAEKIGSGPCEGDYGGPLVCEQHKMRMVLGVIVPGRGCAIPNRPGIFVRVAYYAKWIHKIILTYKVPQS

B1: DVD592 (bispecific antibody, human IgG1, kappa)
heavy: EVQLVESGGGLVQPGGSLRLSCAASGFTINASWIHWVRQAPGKGLEWVGAIYPYSGYTNYADSVKGRFTISADTSKNTAYLQMNSLRAEDTAVYYCARWGHSTSPWAMDYWGQGTLVTVSSASTKGPSVFPLAPQVQLQQSGAELVKPGASVKISCKASGYTFTDYYINWVKLAPGQGLEWIGWIYPGSGNTKYNEKFKGKATLTIDTSSSTAYMQLSSLTSEDTAVYFCVRDSPFFDYWGQGTLLTVSS[omitted - human IgG1 constant region]
light: DIQMTQSPSSLSASVGDRVTITCRASQVIRRSLAWYQQKPGKAPKLLIYAASNLASGVPSRFSGSGSGTDFTLTISSLQPEDFATYYCQQSNTSPLTFGQGTKVEIKRTVAAPDIVLTQSPDSLAVSLGERVTMNCKSSQSLLNSGMRKSFLAWYQQKPGQSPKLLIYWASTRESGVPDRFTGSGSGTDFTLTISSVQAEDVAVYYCKQSYHLFTFGSGTKLEIKRTVAAPSVFIFPPSDEQLKSGTASVVCLLNNFYPREAKVQWKVDNALQSGNSQESVTEQDSKDSTYSLSSTLTLSKADYEKHKVYACEVTHQGLSSPVTKSFNRGEC
notes: DVD-Ig, N-terminal VEGF (AB071), C-terminal PlGF (AB047); HC linker long, LC linker short; also called DVD592VH; DVD592VL
B1 was tested, and the EC50 [1] was 19.2 nM.

B2: DVD600 (bispecific antibody, human IgG1, kappa)
heavy: EVQLVESGGGLVQPGGSLRLSCAASGFTINASWIHWVRQAPGKGLEWVGAIYPYSGYTNYADSVKGRFTISADTSKNTAYLQMNSLRAEDTAVYYCARWGHSTSPWAMDYWGQGTLVTVSSASTKGPQVQLQQSGAELVKPGASVKISCKASGYTFTDYYINWVKLAPGQGLEWIGWIYPGSGNTKYNEKFKGKATLTIDTSSSTAYMQLSSLTSEDTAVYFCVRDSPFFDYWGQGTLLTVSS[omitted - human IgG1 constant region]
light: DIQMTQSPSSLSASVGDRVTITCRASQVIRRSLAWYQQKPGKAPKLLIYAASNLASGVPSRFSGSGSGTDFTLTISSLQPEDFATYYCQQSNTSPLTFGQGTKVEIKRTVAAPSVFIFPPDIVLTQSPDSLAVSLGERVTMNCKSSQSLLNSGMRKSFLAWYQQKPGQSPKLLIYWASTRESGVPDRFTGSGSGTDFTLTISSVQAEDVAVYYCKQSYHLFTFGSGTKLEIKRTVAAPSVFIFPPSDEQLKSGTASVVCLLNNFYPREAKVQWKVDNALQSGNSQESVTEQDSKDSTYSLSSTLTLSKADYEKHKVYACEVTHQGLSSPVTKSFNRGEC
notes: DVD-Ig, N-terminal VEGF (AB071), C-terminal PlGF (AB047); HC linker short, LC linker long; also called DVD600VH; DVD600VL
Work on B2 yielded an EC50 [1] of 17 nM.

B3: DVD042 (bispecific antibody, human IgG1, kappa)
heavy: QVQLVQSGAEVKKPGASVKVSCKASGYTFTSYDINWVRQATGQGLEWMGWMNPNSGNTGYAQKFQGRVTMTRNTSISTAYMELSSLRSEDTAVYYCARDPYYYYYGMDVWGQGTTVTVSSASTKGPEVQLVESGGGLVQPGGSLRLSCAASGYTFTNYGMNWVRQAPGKGLEWVGWINTYTGEPTYAADFKRRFTFSLDTSKSTAYLQMNSLRAEDTAVYYCAKYPHYYGSSHWYFDVWGQGTLVTVSS[omitted - human IgG1 constant region]
light: QSVLTQPPSVSAAPGQKVTISCSGSSSNIENNHVSWYQQLPGTAPKLLIYDNNKRPSGIPDRFSGSKSGTSATLGITGLQTGDEADYYCETWDTSLSAGRVFGGGTKLTVLGQPKAAPDIQMTQSPSSLSASVGDRVTITCSASQDISNYLNWYQQKPGKAPKVLIYFTSSLHSGVPSRFSGSGSGTDFTLTISSLQPEDFATYYCQQYSTVPWTFGQGTKVEIKRTVAAPSVFIFPPSDEQLKSGTASVVCLLNNFYPREAKVQWKVDNALQSGNSQESVTEQDSKDSTYSLSSTLTLSKADYEKHKVYACEVTHQGLSSPVTKSFNRGEC
notes: N-terminal VD IGF1,2, C-terminal VD VEGF; also called DVD042H; DVD042L
Binder B3 has a Kd [2] of 0.000998 nM, a koff [2] of 5.18e-06 s⁻¹ and a kon [2] of 5.2e+06 M⁻¹ s⁻¹.

B4: DVD257 (bispecific antibody, human IgG1, kappa)
heavy: EVQLVESGGGLVQPGGSLRLSCAASGFTFTDNWISWVRQAPGKGLEWVGYISPNSGFTYYADSVKGRFTISADTSKNTAYLQMNSLRAEDTAVYYCARDNFGGYFDYWGQGTLVTVSSASTKGPQVQLQQSGAELVKPGASVKISCKASGYTFTDYYINWVKLAPGQGLEWIGWIYPGSGNTKYNEKFKGKATLTIDTSSSTAYMQLSSLTSEDTAVYFCVRDSPFFDYWGQGTLLTVSS[omitted - human IgG1 constant region]
light: DIQMTQSPSSLSASVGDRVTITCRASQDVSTAVAWYQQKPGKAPKLLIYSASFLYSGVPSRFSGSGSGTDFTLTISSLQPEDFATTYYCQQSYTGTVTFGQGTKVEIKRTVAAPDIVLTQSPDSLAVSLGERVTMNCKSSQSLLNSGMRKSFLAWYQQKPGQSPKLLIYWASTRESGVPDRFTGSGSGTDFTLTISSVQAEDVAVYYCKQSYHLFTFGSGTKLEIKRTVAAPSVFIFPPSDEQLKSGTASVVCLLNNFYPREAKVQWKVDNALQSGNSQESVTEQDSKDSTYSLSSTLTLSKADYEKHKVYACEVTHQGLSSPVTKSFNRGEC
notes: N-terminal VD DLL4, C-terminal VD PlGF; also called 7H; VD257L
For B4, the Kd [3] was 0.234 nM, the koff [3] was 0.000196 s⁻¹ and the kon [3] was 835000 M⁻¹ s⁻¹. The Kd [4] was 0.367 nM, the koff [4] was 0.000111 s⁻¹ and the kon [4] was 302000 M⁻¹ s⁻¹.

B5: DVD046 (bispecific antibody, human IgG1, kappa)
heavy: QVQLVESGGGLVKPGGSLRLSCAASGFTFSDYYMSWIRQAPGKGLEWVSYISSSGSTIYYADSVKGRFTISRDNAKNSLYLQMNSLRAEDTAVYYCARDEYNSGWYVLFDYWGQGTLVTVSSASTKGPEVQLVESGGGLVQPGGSLRLSCAASGYTFTNYGMNWVRQAPGKGLEWVGWINTYTGEPTYAADFKRRFTFSLDTSKSTAYLQMNSLRAEDTAVYYCAKYPHYYGSSHWYFDVWGQGTLVTVSS[omitted - human IgG1 constant region]
light: DIQMTQSPSSVSASVGDRVTITCRASQGISSWLAWYQQKPGKAPNLLIYEASSLQSGVPSRFGGSGSGTDFTLTISSLQPEDFATYYCQQANGFPWTFGQGTKVEIKRTVAAPDIQMTQSPSSLSASVGDRVTITCSASQDISNYLNWYQQKPGKAPKVLIYFTSSLHSGVPSRFSGSGSGTDFTLTISSLQPEDFATYYCQQYSTVPWTFGQGTKVEIKRTVAAPSVFIFPPSDEQLKSGTASVVCLLNNFYPREAKVQWKVDNALQSGNSQESVTEQDSKDSTYSLSSTLTLSKADYEKHKVYACEVTHQGLSSPVTKSFNRGEC
notes: N-terminal VD HGF, C-terminal VD VEGF; also called DVD046H; DVD046L
With B5 the Kd [5] was under 0.0236 nM, the koff [5] was 0.000236 s⁻¹ and the kon [5] was over 1e+07 M⁻¹ s⁻¹.

B6: DVD049 (bispecific antibody, human IgG1, kappa)
heavy: EVQLVESGGGLVQPGGSLRLSCAASGYTFTNYGMNWVRQAPGKGLEWVGWINTYTGEPTYAADFKRRFTFSLDTSKSTAYLQMNSLRAEDTAVYYCAKYPHYYGSSHWYFDVWGQGTLVTVSSASTKGPEVQLVESGGGLVQPGGSLRLSCAASGFSFSSEPISWVRQAPGKGLEWVSSITGKNGYTYYADSVKGRFTISADTSKNTAYLQMNSLRAEDTAVYYCARWGKKVYGMDVWGQGTLVTVSS[omitted - human IgG1 constant region]
light: DIQMTQSPSSLSASVGDRVTITCSASQDISNYLNWYQQKPGKAPKVLIYFTSSLHSGVPSRFSGSGSGTDFTLTISSLQPEDFATYYCQQYSTVPWTFGQGTKVEIKRTVAAPDIQMTQSPSSLSASVGDRVTITCRASQSISSYLAWYQQKPGKAPKLLIYGASSRASGVPSRFSGSGSGTDFTLTISSLQPEDFATYYCQQYMSVPITFGQGTKVEIKRTVAAPSVFIFPPSDEQLKSGTASVVCLLNNFYPREAKVQWKVDNALQSGNSQESVTEQDSKDSTYSLSSTLTLSKADYEKHKVYACEVTHQGLSSPVTKSFNRGEC
notes: N-terminal VD VEGF, C-terminal VD NRP1; also called DVD049H; DVD049L
For B6, the Kd [6] was 1.28 nM, the koff [6] was 0.000181 s⁻¹ and the kon [6] was 142000 M⁻¹ s⁻¹.

B7: DVD576 (bispecific antibody, human IgG1, kappa)
heavy: B2 heavy
light: B1 light
notes: outer AB071 (VEGF), inner AB047 (PlGF); HC linker short, LC linker short; also called DVD-Ig DVD576
With B7 the EC50 [7] was 16.2 nM.

B8: DVD584 (bispecific antibody, human IgG1, kappa)
heavy: B1 heavy
light: B2 light
notes: outer AB071 (VEGF), inner AB047 (PlGF); HC linker long, LC linker long; also called DVD-Ig DVD584
With B8 the EC50 [7] was 18.4 nM.
